Measurements from paper PMC6919601, “Identification of Plasmodium dipeptidyl aminopeptidase allosteric inhibitors by high throughput screening” (PLoS ONE, 2019).
The campaign covered roughly 110,000 compounds. About 230 (0.21%) showed an effect of 50% or more. This is one part of the list.

Target: DPAP1 (Plasmodium falciparum, UniProt Q8IIJ9)
Experiment: primary screen, percent inhibition; read by cleavage of a fluorogenic dipeptide substrate; higher = more effect of the substance
Design: species or system P. falciparum D10 trophozoite lysates; single well
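Further: 30 min substrate incubation versus DMSO and 10 µM JCP410 controls.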

DPAP1, sequence (Q8IIJ9 whole entry, looked up): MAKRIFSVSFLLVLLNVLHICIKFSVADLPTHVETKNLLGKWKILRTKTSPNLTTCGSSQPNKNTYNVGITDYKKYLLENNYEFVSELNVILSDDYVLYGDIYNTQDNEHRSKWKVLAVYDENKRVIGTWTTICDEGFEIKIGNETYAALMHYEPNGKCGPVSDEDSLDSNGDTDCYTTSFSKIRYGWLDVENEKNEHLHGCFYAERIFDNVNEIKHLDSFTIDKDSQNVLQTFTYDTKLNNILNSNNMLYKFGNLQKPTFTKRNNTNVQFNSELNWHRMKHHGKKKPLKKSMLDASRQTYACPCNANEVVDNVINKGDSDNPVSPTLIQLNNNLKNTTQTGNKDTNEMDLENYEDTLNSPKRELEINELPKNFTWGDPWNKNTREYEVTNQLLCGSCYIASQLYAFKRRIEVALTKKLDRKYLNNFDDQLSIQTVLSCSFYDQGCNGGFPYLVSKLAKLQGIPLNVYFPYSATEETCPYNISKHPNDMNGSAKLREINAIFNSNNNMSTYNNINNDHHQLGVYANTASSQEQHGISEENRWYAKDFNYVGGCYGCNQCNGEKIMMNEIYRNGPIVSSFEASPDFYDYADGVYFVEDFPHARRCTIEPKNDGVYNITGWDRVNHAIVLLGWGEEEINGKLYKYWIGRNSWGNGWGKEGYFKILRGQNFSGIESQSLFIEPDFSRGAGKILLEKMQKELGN

| Structure (SMILES) | % Inhibition @ 10 uM [%] |
| --- | --- |
| CCOC(=O)C1=C(C)NC(=O)CC1c1ccc(Cl)c(Cl)c1 (stereo not drawn) | -0.13 |
| CC1=CC(C)C2COC(c3ccccc3O)C1C2C (stereo not drawn) | -6.6 |
| CCOC(=O)c1sc2nc3n(c(=O)c2c1C)CCC3 | -0.415 |
| COc1ccc(S(=O)(=O)N(CC(=O)Nc2cccc(Cl)c2C)c2ccc(F)cc2)cc1OC | -5.21 |
| Cc1ccc(NC(=O)c2cc3c(-c4ccccc4F)nn(C)c3s2)nc1 | -5.1 |
| CC(NC(=O)CN(C)S(=O)(=O)c1cc(Cl)ccc1Cl)c1ccccc1 (stereo not drawn) | 2.44 |
| O=C1c2ccccc2NCN1CC(O)c1cccc2ccccc12 (stereo not drawn) | 0.755 |
| C=CCc1cccc2cc(C(C)=O)c(=O)oc12 | 2.13 |
| CC(C)(CN1CCNCC1)NS(=O)(=O)c1ccccc1 | -0.233 |
| O=C(Nc1nc2ccccc2[nH]1)c1cccc(Cl)c1 | -7.33 |
| O=C(COc1ccc(Cl)cc1)N(Cc1ccc(Cl)cc1)Cc1ccco1 | -4.02 |
| Cc1ccc(C23CC4CC(CC(C(=O)N(C)C)(C4)C2)C3)cc1 | -4.27 |
| CCO/C(O)=C1\C(C)=NC(=S)NC1c1ccsc1 (stereo not drawn) | -4.51 |
| O=C(NCCC(c1ccccc1)c1ccccc1)c1ccc2c(c1)OCO2 | 2.93 |
| CCOc1cc(C(=O)Nc2ccc(OC)cc2)ccc1OCc1ccccc1 | 2.23 |
| O=C(Nc1noc2ccccc12)c1cc(Br)ccc1Cl | 0.362 |
| CN(CC(=O)O)S(=O)(=O)c1cccc2nsnc12 | -5.76 |
| Cc1nc(NC2=NCN(Cc3ccco3)CN2)nc2ccccc12 | -3.5 |
| O=C(c1ccc(-c2ccccc2)s1)N1CCOCC1 | -2.17 |
| CNS(=O)(=O)c1cnccc1N1CCN(C(C)C)CC1 | -7.56 |
| O=C1N=C(N2CCOCC2)S/C1=C/c1ccc(F)cc1 | 6.29 |
| Cc1ccc2[nH]c3c(c2c1)CCCCC3C#N (stereo not drawn) | -3.9 |
| O=C(CN1C(=O)c2ccccc2S1(=O)=O)NC1CCCC1 | 2.22 |
| COc1ccc(CN2C(=O)c3cccnc3C2=O)cc1S(=O)(=O)NCc1ccccc1Cl | 1.03 |
| CN(CCCNC(=O)c1nn(C)c2c1CS(=O)(=O)c1ccccc1-2)Cc1ccccc1 | -1.38 |
| Nc1nc(-c2ccccc2)sc1-c1ccccc1 | -1.66 |

| Structure (SMILES) | % Inhibition @ 10 uM [%] |
| --- | --- |
| COc1ccc(-c2c(C)s/c(=N\C(=O)c3cccnc3)n2C)cc1 | 3.49 |
| Cc1cc(C)cc(NCc2ccco2)c1 | -5.59 |
| CCOC(=O)N1CCN(C(=O)c2sc3nc(C)cc(C)c3c2-n2cccc2)CC1 | 3.87 |
| COc1cscc1C(=O)N[C@@H](CC1CCCCC1)C(=O)NCC#N | -0.214 |
| COc1ccc(Cc2nc(S(=O)(=O)c3ccccc3)c(NCc3ccccc3)o2)cc1 | 0.032 |
| COC(=O)c1cc2oc(C)cc2n1CC(=O)c1ccccc1 | 1.72 |
| Cc1cc(Cl)ccc1N(CC(=O)Nc1ccc2c(c1)OCO2)S(=O)(=O)c1ccccc1 | 8.03 |
| CCc1ccc(-n2c(SCC(=O)N3CCOCC3)nc3sc(C)c(C)c3c2=O)cc1 | -0.968 |
| CCCCCc1nn2cc(-c3ccccc3OCC)nc2s1 | -0.946 |
| CCc1ccccc1NC(=O)c1nn2c(C(F)(F)F)cc(-c3ccccc3)nc2c1Br | 3.15 |
| CCOC(=O)C1=C(C)N=C(C)/C(=C(/O)OCC)C1/C=C/c1ccccc1OC (stereo not drawn) | -1.25 |
| O=C(Cc1ccccc1)N1CCc2ccccc2C1 | 2.41 |
| CC(=O)c1cccc(NC(=O)c2sc3nc4c(cc3c2N)CCCCCC4)c1 | 4.23 |
| COc1cc(OC)cc(-c2cc3nc(C)c(CCC(=O)NC4CCCCCC4)c(C)n3n2)c1 | -0.465 |
| CC(=O)OC(C#CCN1CCOCC1)c1ccccc1 (stereo not drawn) | -5.96 |
| CCOc1ccc(/C=C2\SC(=O)N(CN3CCOCC3)C2=O)c(OCC)c1 | 3.69 |
| O=C1/C(=C/c2cc(Br)cc(Br)c2O)Sc2ccccc21 | 9.96 |
| Clc1nc(NCCN2CCOCC2)nc(NC2CCCCC2)n1 | 7.93 |
| O=C(CCc1nc(-c2ccc(Cl)cc2)no1)NCc1ccco1 | 3.62 |
| Cc1ccc(N(CC(=O)NC2CC3CCC2C3)S(=O)(=O)c2ccccc2)cc1Cl (stereo not drawn) | -6.4 |
| CN(C)CCc1ccccc1Sc1ccccc1 | 3.05 |
| CCC(=O)c1ccc(OCC(=O)Nc2c(C)cccc2CC)cc1 | -9.13 |
| CC(=O)N1N=C(c2ccccc2)CC1c1ccccc1O (stereo not drawn) | -0.0938 |
| COc1ccc(/C=c2\sc3nnc(-c4ccccc4Cl)n3c2=O)cc1 | 3.72 |
| CCOC(=O)c1ccc2nc3c(nc2c1)C(=O)c1ccccc1C3=O | -1.6 |
| O=C(O)C1C2C=CC(C2)C1C(=O)NCc1ccc(Cl)c(Cl)c1 (stereo not drawn) | -4.7 |

| Structure (SMILES) | % Inhibition @ 10 uM [%] |
| --- | --- |
| CCn1cc(/C=C(\NC(=O)c2ccccc2F)C(=O)NCCCn2ccnc2)c2ccccc21 | -5.36 |
| N#C/C(=C/c1ccc(O)cc1)c1nc(O)c2ccccc2n1 | -10.4 |
| Cc1occc1C(=O)Nc1nc2ccc(S(C)(=O)=O)cc2s1 | 2.01 |
| CC1(C)Cc2nc3sc4c(=O)n(CC(N)=O)cnc4c3cc2CO1 | -0.884 |
| Cc1nc(C(=O)Nc2cccc(F)c2)c(C(=O)NC(C)C)nc1C | -7.14 |
| COc1ccc2nc3sc(C(=O)NCc4ccc(F)cc4)cc3cc2c1 | 1.22 |
| COc1cc2c(cc1OC)C(c1ccccc1)N(S(C)(=O)=O)CC2 (stereo not drawn) | 1.8 |
| CCN(CC)/C(=C/C(=O)c1cccc([N+](=O)[O-])c1)c1ccccc1 | -0.239 |
| Cc1ccccc1CSc1c[nH]c2ccccc12 | 10.5 |
| COCCCNC(=O)/C(C#N)=C/c1c(Oc2ccccc2Cl)nc2ccccn2c1=O | -5.11 |
| Nc1c(-c2nc(-c3ccncc3)no2)nnn1-c1ccccc1C(F)(F)F | 4.73 |
| N#CC1=C(N)OC2=C(C(=O)CC(c3ccccc3)C2)C1c1ccccc1C(F)(F)F (stereo not drawn) | 0.751 |
| O=C(Nc1nc(-c2ccc(Br)cc2)cs1)C1CCC1 | 1.14 |
| C=CCSc1nc(O)c2c(n1)OC(N)=C(C#N)C2c1ccccc1 (stereo not drawn) | -2.14 |
| CN(C)c1cc(NC(=O)CNC(C)(C)CC(C)(C)C)c2ccccc2n1 | 0.611 |
| O=C(c1ccc(C(=O)N2CCN(c3ccccc3)CC2)cc1)N1CCN(c2ccccc2)CC1 | 0.815 |
| CCOc1ccc2[nH]c(SCC(=O)C(C)(C)C)nc2c1 | 16.8 |
| Cc1ccc(-c2cc(C(=O)O)c3ccccc3n2)o1 | 10.6 |
| O=C(NCC1CCCO1)c1cnn2c(C(F)(F)F)cc(-c3ccc4c(c3)OCO4)nc12 (stereo not drawn) | 2.06 |
| Cc1nn(CC(=O)NCCc2cccs2)c(=O)c2cc3cc(F)ccc3n12 | -1.7 |
| CCOc1ccc(N2C(=O)C(C)SC23C(=O)Nc2ccccc23)cc1 (stereo not drawn) | 2.09 |
| CC1=C(C(=O)OC2CCCCCC2)C(c2ccc(Cl)c(Cl)c2)NC(=O)N1 (stereo not drawn) | 7.24 |
| CC12CC3CC(C)(C1)CC(CC(N)=O)(C3)C2 | -5.51 |
| CC1=NN2C(=N)/C(=C\c3ccc(SC4CCCCC4)o3)C(=O)N=C2S1 | -4.96 |
| NC(=O)Nc1ccc2c(c1)Nc1ccccc1CC2 | -0.736 |
| N#CC1=C(N)OC2=C(C(=O)c3ccccc3C2=O)C1c1ccc2ccccc2c1 (stereo not drawn) | 2.91 |

| Structure (SMILES) | % Inhibition @ 10 uM [%] |
| --- | --- |
| COc1ccc(OCC(=O)Nc2ccc(F)c(Cl)c2)cc1 | 8.06 |
| CCCSc1nnc2c(n1)[nH]c1c(C)cccc12 | 6.86 |
| O=C(Cn1ncc2c1-c1ccccc1OC2)NCCN1CCN(Cc2ccccc2)CC1 | 4.16 |
| COC(=O)c1sc(N2C(=O)c3oc4ccccc4c(=O)c3C2c2ccc(C(C)(C)C)cc2)nc1C (stereo not drawn) | -1.86 |
| Brc1ccccc1CN1CCOCC1 | -5.42 |
| Fc1ccccc1-c1ccc(CNCCSc2nnnn2-c2ccccc2)o1 | -1.31 |
| CN(CCCNCc1c(C(=O)O)n(Cc2ccc(F)cc2Cl)c2ccccc12)Cc1ccccc1 | 0.277 |
| O=C(Nc1sc2c(c1C(=O)N1CCOCC1)CCCCC2)c1ccccc1 | 5.79 |
| COc1ccc(Nc2nc(Cl)nc(Nc3ccc(C)cc3)n2)cc1 | -1.86 |
| CCOc1ccc(/C=C/C(=O)Nc2nnc(Cc3ccc(Cl)cc3)s2)cc1OC | -5.44 |
| CCCNC(=O)c1oc2ccc3c(c2c1C)C(O)CC(C)(C)O3 (stereo not drawn) | 3.47 |
| Cc1ccc(C(=O)Nc2nc(-c3nnn(-c4ccc(F)cc4)c3C)ns2)cc1C | 2.99 |
| O=C(/C=C/c1ccco1)NC(=S)N1CCCCC1 | 4.88 |
| COc1ccc(C(=O)N2c3ccc(F)cc3CCC2C)cc1OC (stereo not drawn) | -7.15 |
| CC/N=c1\c(NC(=O)Cc2ccccc2)c(O)oc2ccccc12 | 2.5 |
| Cc1noc(/C=C/N(C)C)c1S(=O)(=O)N1CCCC(C(=O)NCCc2ccccc2)C1 (stereo not drawn) | -4.69 |
| Cc1cc(C)cc(C=C2C(=O)c3ccccc3C2=O)c1 | 2.6 |
| Cc1cc(=O)[nH]c(=O)n1-c1ccccc1 | -1.42 |
| O=C(CN1CCCCCC1)Nc1ccc(-c2ccccc2)cc1 | 1.35 |
| FC(F)(F)c1cccc(CN2CCN(c3cccc(Cl)c3)CC2)c1 | -0.127 |
| C=CCN(Cc1nc(-c2ccc(OC)c(OC)c2)no1)S(=O)(=O)c1c(C)cc(C)cc1C | 0.758 |
| O=C(O)c1cc(-c2cccs2)nc2[nH]nc(-c3ccc(Br)cc3)c12 | -5.42 |
| Fc1ccc(CN2CCN(c3cccc(C(F)(F)F)c3)CC2)cc1Br | 1.27 |
| CCn1c2ccccc2c2nnc(N3CCN(C(=O)c4ccco4)CC3)nc21 | 1.96 |
